Laboratory results taken from the supplement of paper PMC3334620.
Whole data set: some 33,000 sequences, median “E-score (-0.5 to 0.5)” near -0.041, cut for the highest 2% near 0.37. The list shows a part of the results.

target: T1, Ecm22 (UniProt Q05958); assay: PBM E-score (8-mer binding enrichment) (E-score (-0.5 to 0.5)); higher = stronger / more preferred TF binding; most listed sequences are background and not binding sites; conditions: protein concentration: 200 nM; construct: GST-full length
T1 sequence: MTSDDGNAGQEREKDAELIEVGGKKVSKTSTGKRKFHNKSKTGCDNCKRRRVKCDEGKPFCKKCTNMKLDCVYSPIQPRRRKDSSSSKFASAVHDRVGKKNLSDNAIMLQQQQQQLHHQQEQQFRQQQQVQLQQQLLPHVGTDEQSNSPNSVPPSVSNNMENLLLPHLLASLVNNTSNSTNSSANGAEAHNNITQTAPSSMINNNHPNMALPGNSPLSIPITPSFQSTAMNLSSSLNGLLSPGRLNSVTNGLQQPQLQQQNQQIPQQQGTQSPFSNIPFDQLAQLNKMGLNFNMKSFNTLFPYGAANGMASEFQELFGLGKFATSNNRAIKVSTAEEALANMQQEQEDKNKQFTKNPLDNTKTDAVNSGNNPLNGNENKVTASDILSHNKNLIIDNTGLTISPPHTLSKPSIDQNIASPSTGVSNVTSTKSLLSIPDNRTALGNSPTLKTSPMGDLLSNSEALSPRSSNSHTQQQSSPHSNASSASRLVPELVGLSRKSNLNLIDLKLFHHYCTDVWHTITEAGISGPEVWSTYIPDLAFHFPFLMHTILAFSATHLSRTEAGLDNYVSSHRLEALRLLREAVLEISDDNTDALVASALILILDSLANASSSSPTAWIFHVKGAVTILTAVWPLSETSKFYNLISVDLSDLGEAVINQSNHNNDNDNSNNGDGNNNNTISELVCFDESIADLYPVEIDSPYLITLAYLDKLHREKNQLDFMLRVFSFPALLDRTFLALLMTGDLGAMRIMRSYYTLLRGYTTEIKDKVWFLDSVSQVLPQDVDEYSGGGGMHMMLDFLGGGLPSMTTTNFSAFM
Procedure, shortened: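 GST-tagged yeast TFs (full-length or DNA-binding domain) were made by PURExpress in vitro transcription/translation and applied at about 100-200 nM to universal all-10-mer Agilent arrays. The arrays were made double-stranded by primer extension, on fresh or once-stripped slides. Bound protein was detected with fluorescent anti-GST, and scans were normalised with masliner. Each ungapped eight-base word, pooled with its reverse complement, received an E-score (modified Wilcoxon-Mann-Whitney statistic) from the Universal PBM Analysis Suite.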

Sequence | PBM E-score
AATTCTTA | -0.143
CCCGGGAA | -0.0348
CCATCGTA | 0.428
ATTCGGGA | 0.0205
AATAGAGG | 0.0162
CCGCCGAG | -0.0513
AAGTTTGG | -0.0477
ATCTTACG | 0.292
CGACAACG | 0.245
AACTGCGG | 0.0437
ATTAACGA | 0.402
ATCCGCTC | 0.218
ATCGCCAT | -0.00876
GTCGCGTA | 0.309
AAACGCGA | 0.313
ACTTATAG | 0.0935
AAGCGAGT | 0.357
ATTAAAAG | 0.0211
ATAAAGAC | -0.162
GGATTACA | -0.196
ACACACAC | 0.0472
CGAGAATA | 0.189
TGAGAACA | -0.17
GAAGGGGC | -0.261
CGAAGTAC | 0.264

Sequence | PBM E-score
CATCGGCA | -0.0638
CATCTTGG | -0.214
AGTGATAT | 0.201
CAACGAAG | 0.277
CTACCAAG | -0.23
AAGGCCAG | -0.265
AGCGTACT | 0.103
ATATGTTG | -0.0404
AGGGCGGG | -0.0524
AGACCAAT | -0.0553
GCAGTACA | -0.132
TACTTGAA | 0.0126
ATGGACAG | -0.208
GTGAAGAA | 0.0883
ATATCTCC | 0.0559
AGGTGCAA | -0.169
GTCGAGAA | 0.0318
GGAAATCA | -0.0787
CCCCAAAG | -0.25
ACAGATGG | -0.325
ATGGTCGA | -0.0698
AGGATGAC | -0.183
ACACGTGT | 0.104
CCGCCAGC | -0.163
GGAAGAGA | -0.178

Sequence | PBM E-score
GAACGTCA | -0.229
CGGTATTA | 0.134
ATTTCATG | -0.207
GATATGGC | -0.285
AGACAGAA | -0.0147
CTGTTGGA | -0.176
CGAAATGA | 0.141
CAGAAGGC | -0.161
CCGGGAGG | -0.132
ATTGAGTA | 0.0297
GGAGACTA | -0.0834
CTCCCTAC | -0.135
GGGCGCAC | -0.206
CGGATAAC | 0.151
GAACCGAC | 0.316
CAGTATCC | -0.00158
ATAAAATG | 0.0169
ACTCTGGC | -0.252
AATATTAC | 0.174
CGTGGTCA | -0.0996
AAGGACCA | -0.121
ATATCGCA | 0.00652
AGCGGGAT | 0.0859
TAAGGGGA | -0.243
ACCCCCAC | -0.385

Sequence | PBM E-score
ATAACAAT | -0.0971
ATCATCGG | -0.0581
GCGCGTTA | 0.0959
AGCGTCAA | -0.193
AGAGTCAT | -0.277
ATTGACGC | -0.224
ACTTCGAA | 0.177
CATCAGAA | -0.0919
GAAACCCC | -0.204
AGGGCTGC | -0.243
ATTTCGGA | 0.179
GTGTGTCA | -0.0374
GGGTTTGA | -0.0819
GGACACGA | 0.178
AACTAGGC | -0.152
CGCTTCCG | 0.205
AGTTCCCG | 0.0677
AGCAAGAA | -0.0831
CAGTCCTA | -0.252
GAGTTGAC | 0.0175
GAGCCAAC | -0.15
CAGCGATG | -0.175
ACCGGACT | -0.0404
AGCTTAAG | -0.104
CTTTGCTC | -0.0468

Sequence | PBM E-score
AAAGAGCC | -0.146
ATGGCCTG | -0.305
TAGCTGAA | 0.0371
GTCTGCAC | -0.269
ACGGTCCA | 0.016
CCCCGCTC | -0.0291
CGATCAAC | 0.169
GCTATATA | 0.0637
TACACTAA | -0.113
ACCGCCCC | 0.0878
ACATCACG | 0.0575
ATGAGATG | -0.227
ATTCTGCC | -0.105
AATAGAAG | 0.0168
CAGAGACC | -0.143
AAGTTCTG | -0.088
TAGCAGGA | -0.208
GGGCGAAA | 0.0574
AACCTCGG | 0.168
GGTTAGAC | -0.0792
CTTAGAAA | -0.201
CTGGATAC | 0.112
CTGCTCGC | 0.0949
CGCGCGGA | 0.0841
CTCGCCTC | -0.0125

Sequence | PBM E-score
GGAATGCA | -0.11
AGTTAGAT | -0.239
AGAGACTG | -0.171
ATCACCGC | 0.0231
ACTCGCCA | 0.0346
ACCGAGCA | 0.252
GTTTATCA | 0.089
ACGCGTTA | 0.0663
ACGAGTTG | 0.371
ATTTATTC | 0.0382
GGTACATA | 0.0186
GATCGATA | 0.102
CCACAGAA | 0.0544
GAAAACGC | 0.0151
ATTGGGTA | -0.132
AACACGAT | 0.0697
AATCGCAC | 0.0387
CTCATAGC | -0.0777
ACTTGCCA | -0.239
GAATTTTA | -0.0314
AGGGGGAT | -0.154
ATGTGAGG | -0.129
ACTAGAAC | 0.0361
ACAATAAC | -0.134
CCGGCGAC | -0.141

Sequence | PBM E-score
AGGGTTCC | -0.186
GCAACTCA | -0.0943
CCGCATCC | -0.112
TAGCCTGA | -0.178
CTACCCAG | -0.0541
CTGAAGCA | -0.2
ACAAAAGG | 0.032
ATTATAGA | -0.0038
CACTTAGG | -0.058
CGGTTACG | 0.276
CAGGGGAG | -0.241
CTCTTCGC | -0.0036
GGCCCTTA | -0.168
ACGTAATA | 0.165
AAAATAAC | -0.104
AGCACACG | -0.0915
CACGTGAA | 0.123
TATGGAAA | 0.0524
CGCCGAAA | 0.0707
CGGACATC | 0.0732
GGTCAAGA | -0.309
AGTGGATC | 0.0138
